{"source": "paper PMC4336329", "about": "(PLoS ONE, 2015)", "note": "Hit rate of the full screen: of about 310,000 compounds, about 14,000 (4.5%) showed an effect of 50% or more. Effects have a minus sign here. Some of the results follow.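 Further: peak tail current of the secondary pulse compared with the same well before compound.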", "data": [{"biological_target": "human ether-à-go-go-related gene (hERG) potassium channel (human, UniProt Q12809)", "sequence (Q12809 whole entry, looked up)": "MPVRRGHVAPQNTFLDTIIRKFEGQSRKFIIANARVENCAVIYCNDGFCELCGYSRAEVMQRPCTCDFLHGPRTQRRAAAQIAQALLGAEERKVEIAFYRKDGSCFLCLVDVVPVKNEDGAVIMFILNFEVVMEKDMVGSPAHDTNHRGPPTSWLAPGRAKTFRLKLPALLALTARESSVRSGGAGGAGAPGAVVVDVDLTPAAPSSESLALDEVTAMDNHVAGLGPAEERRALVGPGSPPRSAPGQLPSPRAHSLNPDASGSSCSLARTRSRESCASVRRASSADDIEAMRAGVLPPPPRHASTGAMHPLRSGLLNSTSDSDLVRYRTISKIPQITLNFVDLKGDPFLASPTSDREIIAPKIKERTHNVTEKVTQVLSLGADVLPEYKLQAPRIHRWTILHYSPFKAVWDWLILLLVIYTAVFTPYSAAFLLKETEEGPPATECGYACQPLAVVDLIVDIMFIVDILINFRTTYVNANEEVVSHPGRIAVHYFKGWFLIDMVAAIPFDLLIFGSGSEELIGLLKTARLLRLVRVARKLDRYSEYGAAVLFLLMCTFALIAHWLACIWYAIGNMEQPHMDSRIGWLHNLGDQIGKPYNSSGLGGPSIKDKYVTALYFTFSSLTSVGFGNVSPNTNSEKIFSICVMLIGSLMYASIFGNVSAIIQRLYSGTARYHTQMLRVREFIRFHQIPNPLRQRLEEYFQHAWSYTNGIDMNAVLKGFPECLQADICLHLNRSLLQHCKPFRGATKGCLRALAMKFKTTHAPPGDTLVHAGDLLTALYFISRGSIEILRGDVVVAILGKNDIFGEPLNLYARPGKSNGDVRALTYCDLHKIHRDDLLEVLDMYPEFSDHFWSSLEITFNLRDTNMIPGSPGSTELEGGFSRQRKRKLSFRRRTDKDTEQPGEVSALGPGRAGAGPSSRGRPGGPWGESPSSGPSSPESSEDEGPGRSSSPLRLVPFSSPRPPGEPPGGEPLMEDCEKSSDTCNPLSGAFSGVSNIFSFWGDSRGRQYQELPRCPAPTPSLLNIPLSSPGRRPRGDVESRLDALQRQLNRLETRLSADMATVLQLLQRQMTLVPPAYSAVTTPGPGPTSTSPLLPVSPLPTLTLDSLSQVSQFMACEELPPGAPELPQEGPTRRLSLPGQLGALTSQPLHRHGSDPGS", "test": "primary screen, population patch clamp on CHO cells stably expressing hERG", "units": {"hERG current change (%, negative = inhibition) at 10uM": "%"}, "values": [{"smiles": "Cc1cc(=O)[nH]c(SCC(N)=O)c1C#N", "hERG current change (%, negative = inhibition) at 10uM": 8.18}, {"smiles": "COc1ccccc1NC(=O)NNC(=O)C(C)Oc1ccc2ccccc2c1", "note": "(stereo not shown)", "hERG current change (%, negative = inhibition) at 10uM": 9.36}, {"smiles": "N#C/C(=N/Nc1ccc(OC(F)(F)F)cc1)C(N)=S", "hERG current change (%, negative = inhibition) at 10uM": -3.33}, {"smiles": "COc1ccc(C(=O)NCC(c2ccco2)N2CCc3ccccc32)cc1OC", "note": "(stereo not shown)", "hERG current change (%, negative = inhibition) at 10uM": -38.5}, {"smiles": "CCCC(=O)NC(c1ccc(OC)cc1)c1c(O)ccc2ccccc12", "note": "(stereo not shown)", "hERG current change (%, negative = inhibition) at 10uM": 19.8}, {"smiles": "Cc1ccccc1CN(C)Cc1cc(=O)oc2c(C)c(C)ccc12", "hERG current change (%, negative = inhibition) at 10uM": 4.49}, {"smiles": "Cc1nnc(C)n1/N=C/c1cc(Br)cc(Br)c1O", "hERG current change (%, negative = inhibition) at 10uM": 14.1}, {"smiles": "Cc1nc(NC(=O)c2c(-c3ccccc3)noc2C)sc1C(=O)N(C)C", "hERG current change (%, negative = inhibition) at 10uM": 16.7}, {"smiles": "COc1ccc(NC(=O)CSc2nc3ccncc3[nH]2)c(OC)c1", "hERG current change (%, negative = inhibition) at 10uM": 6.07}, {"smiles": "COc1cccc(C(=O)NCC(=O)NCc2cc(=O)n(C)c(=O)n2C)c1", "hERG current change (%, negative = inhibition) at 10uM": 15.1}, {"smiles": "CCN1CCN(CC(O)COc2ccc(Cl)cc2)CC1.Cl", "note": "(stereo not shown)", "hERG current change (%, negative = inhibition) at 10uM": -36.2}, {"smiles": "COC(=O)c1cn(NC(=O)c2ccc([N+](=O)[O-])cc2Cl)c(=O)c2ccccc12", "hERG current change (%, negative = inhibition) at 10uM": -5.68}, {"smiles": "Cc1oc(-c2ccccc2F)nc1CN1CCC(C(=O)NCc2cccnc2)CC1", "hERG current change (%, negative = inhibition) at 10uM": -26.7}, {"smiles": "COc1cc(-c2nc3ccccc3s2)ccc1O", "hERG current change (%, negative = inhibition) at 10uM": -3.7}, {"smiles": "CCOc1ccc(OCC)c2sc(C)nc12", "hERG current change (%, negative = inhibition) at 10uM": 4.86}, {"smiles": "Cc1ccc(N2CC(C(=O)OCC(=O)Nc3ccc(F)cc3F)CC2=O)cc1", "note": "(stereo not shown)", "hERG current change (%, negative = inhibition) at 10uM": -14.3}, {"smiles": "Cl.N#C/C=C/N1CCN(Cc2ccc3c(c2)OCO3)CC1", "hERG current change (%, negative = inhibition) at 10uM": 1.29}, {"smiles": "Cn1c(=O)c2c(nc3n2CC(COc2ccccc2)O3)n(C)c1=O", "note": "(stereo not shown)", "hERG current change (%, negative = inhibition) at 10uM": 8.98}, {"smiles": "O=C(NCC1CCCO1)C1CCC(=O)N1CCc1ccccc1", "note": "(stereo not shown)", "hERG current change (%, negative = inhibition) at 10uM": 2.7}, {"smiles": "Cc1c(Oc2cc(NN3CCCCC3)c([N+](=O)[O-])cc2[N+](=O)[O-])cccc1[N+](=O)[O-]", "hERG current change (%, negative = inhibition) at 10uM": 13.2}, {"smiles": "O=C(NC1=C(NC2CCS(=O)(=O)C2)C(=O)c2ccccc2C1=O)c1ccccc1", "note": "(stereo not shown)", "hERG current change (%, negative = inhibition) at 10uM": -7.31}, {"smiles": "CC1(C)Cc2c(sc(/N=C/N3CCCCC3)c2C#N)C(C)(C)N1", "hERG current change (%, negative = inhibition) at 10uM": -31}, {"smiles": "COc1cccc(/C=C2\\C=C(c3ccc(C)cc3)OC2=O)c1OC(C)=O", "hERG current change (%, negative = inhibition) at 10uM": 12.2}, {"smiles": "COc1ccc(CCNC2CCc3ccccc3C2)cc1", "note": "(stereo not shown)", "hERG current change (%, negative = inhibition) at 10uM": -56}, {"smiles": "C=CCn1c(C)cc(-c2csc(NC(=O)CCc3nc4ccccc4c(=O)[nH]3)n2)c1C", "hERG current change (%, negative = inhibition) at 10uM": -23.8}]}]}
